Laboratory results as given in PubChem BioAssay AID624417 (National Center for Advancing Translational Sciences (NCATS), 2012).
Out of some 410,000 compounds screened, about 6,400 (1.6%) were called active. The inconclusive results got no clear call from the source; some entries with a clear call stand among them for comparison. Calls come from the whole dose curve; as a rule, active = well fitted inhibition curve with a large enough effect; inconclusive = small, poorly fitted or top-dose-only effect; inactive = no such curve, though single readings can be large or run the other way. Potencies of inconclusive entries are left out as doubtful fits.

molecular target: Glucagon-like peptide 1 receptor (Homo sapiens) (UniProt P43220); test: qHTS of GLP-1 Receptor Inverse Agonists (Inhibition Mode); conditions: HEK293 GLP-1R CRE-luciferase, luminescence, 24 h, GLP-1R form is constitutively active; activity change, negative = inhibition: at 38.3 µM (top of the series) unless noted; note: nearly all actives have a fitted effect of over 55% in size
In short: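 GLP-1R inverse agonism mode: basal reporter luminescence in engineered HEK293 cells measured after one day of compound exposure at 37 deg C, with a 12 min room-temperature detection step.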
% is set by controls: 0 for no effect and ±100 for the full control effect; potency is the fitted concentration of half-maximal effect; tags give direction and shape of the fitted curve.

Chain of UniProt P43220 (P43220 whole entry, looked up): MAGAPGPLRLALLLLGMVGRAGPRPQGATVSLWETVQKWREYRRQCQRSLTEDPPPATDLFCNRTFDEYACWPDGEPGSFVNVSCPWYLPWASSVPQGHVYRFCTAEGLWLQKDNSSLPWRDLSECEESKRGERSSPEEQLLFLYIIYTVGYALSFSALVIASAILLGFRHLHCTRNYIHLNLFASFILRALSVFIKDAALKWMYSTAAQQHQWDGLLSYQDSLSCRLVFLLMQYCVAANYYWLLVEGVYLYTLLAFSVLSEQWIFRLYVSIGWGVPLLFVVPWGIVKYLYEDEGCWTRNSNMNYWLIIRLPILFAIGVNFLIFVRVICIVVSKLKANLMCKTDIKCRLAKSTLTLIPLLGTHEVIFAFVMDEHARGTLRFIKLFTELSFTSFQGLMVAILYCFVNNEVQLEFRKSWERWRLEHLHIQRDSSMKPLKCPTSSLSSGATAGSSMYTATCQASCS

SMILES | Potency | activity change, negative = inhibition
Cc1cnc(CN(C)C(=O)c2ccc3oc(Cc4ccc(Cl)cc4)nc3c2)[nH]1 | inconclusive [inhibitor, partial curve, poor fit] | 
O=S(=O)(Nc1cccc(-c2cn3cccnc3n2)c1)c1ccccc1 | inactive | 
O=C(Nc1c(F)cc(F)cc1Br)c1cc2nc(C(F)F)cc(C(F)F)n2n1 | inconclusive [inhibitor, single point] | 
C=C(C)c1cccc(C(C)(C)NC(=O)N2CCCC2)c1 | inactive | 
COc1ccccc1OCc1ccc(C(=O)NCC(C)C)o1 | inconclusive [inhibitor, full curve, poor fit] | 
CC1CCN(C(=O)Cn2cc(SCc3cccc(F)c3)c3ccccc32)CC1 | inconclusive [inhibitor, partial curve, poor fit] | 
Nc1nc2c3ccccc3nc(C3CC3)n2n1 | inactive | 
COc1ccc(-c2ccc(CN3C(C)C(=O)N(Cc4cn(CCC5OCCO5)nn4)CCS3(=O)=O)cc2)cc1 (centres undefined) | inconclusive [inhibitor, single point] | 
CC(C)c1ccc(NC(=O)C2CC(=O)N(C3CCCC3)C2)cc1 (centres undefined) | inconclusive [inhibitor, partial curve, poor fit] | 
CCCOc1cccc(C(=O)Nc2cccnc2)c1 | inconclusive [inhibitor, full curve, poor fit] | 
Cc1nn(Cc2ccccc2Cl)c(C)c1NC(=O)CCCn1nc([N+](=O)[O-])c(Cl)c1C | inconclusive [inhibitor, partial curve, poor fit] | 
O=C(O)c1ccc2c(c1)C(=O)N(CCc1ccccc1)C2=O | inactive | 
CCC(C)Sc1ccc([C@@H]2[C@@H]3C(=O)N(C)C(=O)[C@@H]3[C@]3(C(=O)OC)CCCCN23)cc1OC (some centres undefined) | inconclusive [inhibitor, single point] | 
Fc1cccc(Cc2c(-c3ccccc3)nc3ccc(Br)cn23)c1 | inconclusive [inhibitor, single point] | 
COc1ccc(S(=O)(=O)N2CCCCC2)cc1NC(=O)CNc1ccccc1C(C)=O | inconclusive [inhibitor, partial curve] | 
S=C(NCCSCc1ccc(Cl)c(Cl)c1)Nc1ccccc1 | inconclusive [inhibitor, partial curve, poor fit] | 
CCOC(=O)C1(C)CCCN(C(=O)C(c2ccccc2)c2ccccc2)C1 (centres undefined) | inconclusive [inhibitor, single point] | 
CNC(=O)c1cc(Oc2ccc(NC(=O)c3[nH]c(-c4ccccc4)c4c3C(=O)N(C)C4=O)cc2)ccn1 | inactive | 
CC(=O)C(=Nc1ccc(Cl)cc1Cl)NNc1cccc(Cl)c1 | inconclusive [inhibitor, partial curve, poor fit] | 
COc1cc2ccccc2cc1C(=O)N1CCN(c2nc3c(C)cc(C)cc3s2)CC1 | inconclusive [inhibitor, single point] | 

SMILES | Potency | activity change, negative = inhibition
CC(C)(C)C(=O)Nc1ccccc1N1CCN(C(=O)c2ccc(Cl)cc2)CC1 | inconclusive [inhibitor, single point] | 
Cc1ccc(NC(=O)c2cnn(-c3ccccc3)c2NC(=O)c2ccco2)cc1C | inconclusive [inhibitor, single point] | 
Cc1cccc(C(=O)N2CCC(Cc3ccccc3)CC2)c1[N+](=O)[O-] | inconclusive [inhibitor, partial curve, poor fit] | 
Cc1cccc(Nc2ncnc3ccc(Br)cc23)c1 | inconclusive [inhibitor, partial curve, poor fit] | 
CC1=NN(C(N)=S)C(=O)C1N=Nc1ccccc1O (centres undefined) | inactive | 
CC1CCN(c2nnc(-n3cccc3CNc3cccc(F)c3)s2)CC1 | inconclusive [inhibitor, single point] | 
C=CCNc1n[nH]c(=S)s1 | inconclusive [inhibitor, full curve, poor fit] | 
Cc1ccc(C(=O)NC2CC3CCCC(C2)N3Cc2ccccc2)cc1 (centres undefined) | inactive | 
C[C@H](O)[C@@H]1C(=O)N2CCc3c([nH]c4ccccc34)[C@@H]2C[C@@H]1N(C)Cc1ccc(Cl)cc1 | inconclusive [inhibitor, single point] | 
CCc1ccc(-n2c(SCc3cc(=O)n4cc(Br)ccc4n3)nc3[nH]ncc3c2=O)cc1 | inconclusive [inhibitor, single point] | 
CCN(CC)S(=O)(=O)c1cccc(C(=O)N/N=C(\C)c2ccc(O)cc2O)c1 |  | inactive: -21.9% [at 0.307 µM]
CN1C/C(=C/c2cccnc2)C(=O)/C(=C/c2cccnc2)C1 | inconclusive [inhibitor, single point] | 
Cc1cc(C)c(CSc2ncnc3nc[nH]c23)c(C)c1 | inconclusive [inhibitor, partial curve, poor fit] | 
Nc1cc(S(=O)(=O)Nc2ccc(Cl)cc2)ccc1N1CCOCC1 | inconclusive [inhibitor, partial curve] | 
CN(C)C=NC(=O)c1cc(C(=O)c2ccc(Cl)cc2Cl)c[nH]1 | inconclusive [inhibitor, partial curve, poor fit] | 
O=C(/C=C/c1ccc(N2CCCCC2)c([N+](=O)[O-])c1)c1ccc(O)cc1 | inconclusive [inhibitor, single point] | 
CCCC[C@@H]1C=C(C(=O)O)[C@H](c2ccc(Br)cc2)N1S(=O)(=O)c1ccc(C)cc1 | inconclusive [inhibitor, single point] | 
O=S1(=O)CC(N2CC=CC2)CN1Cc1cn(Cc2cccc(Cl)c2)nn1 (centres undefined) | inconclusive [inhibitor, single point] | 
CCOC(=O)C1=C(C)N=c2s/c(=C/c3ccc(OCC(=O)O)cc3)c(=O)n2C1c1ccc(F)cc1 (centres undefined) | inconclusive [inhibitor, single point] | 
